In all, about 48,000 compounds went through this assay and about 1,200 (2.5%) were called active. Roughly 2% stayed inconclusive and do not appear here.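 The calls were made as follows: active = activation of at least 60% and not above a set upper limit (about 1 call in 100 departs from these limits); inconclusive = activation of 40% to 60%, or above that upper limit; inactive = activation under 40%.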 The list shows a part of the results.
target: Probable G-protein coupled receptor 32 (Homo sapiens) (UniProt O75388); assay: qHTS for Agonists of Human Resolvin D1 Receptor DRV1; conditions: CHO-K1 GPR32 beta-arrestin PathHunter luminescence, 90 min; at 76.9 µM; stronger effect = higher value; zero percent set by DMSO-only wells; also: 0% is about no effect
Sequence of UniProt O75388 (O75388 whole entry, looked up): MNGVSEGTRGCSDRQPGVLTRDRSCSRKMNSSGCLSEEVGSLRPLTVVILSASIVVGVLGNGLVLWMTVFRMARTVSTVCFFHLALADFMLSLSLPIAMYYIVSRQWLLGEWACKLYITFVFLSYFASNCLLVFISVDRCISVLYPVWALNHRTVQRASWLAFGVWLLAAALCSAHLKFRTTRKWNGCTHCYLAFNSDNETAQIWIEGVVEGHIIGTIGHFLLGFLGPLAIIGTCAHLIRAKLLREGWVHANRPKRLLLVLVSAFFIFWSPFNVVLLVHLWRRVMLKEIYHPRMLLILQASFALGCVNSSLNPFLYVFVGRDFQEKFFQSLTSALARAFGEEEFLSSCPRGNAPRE
How it was run: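 Engineered CHO-K1 line co-expressing GPR32-ProLink and EA-beta-arrestin. Compound treatment lasted 90 min at 37 °C. Luminescence was recorded after 1 h with substrate at ambient temperature, relative to DMSO basal wells.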

activation, inactive:
COc1ccc(-c2c3c(nc4sc(C(=O)Nc5ccc(Cl)cc5)c(N)c24)CC(C)(C)CC3=O)cc1 -7.67%
Cc1ccc(CN(C(=O)COc2ccc(C(C)(C)C)cc2)C2CCS(=O)(=O)C2)o1 (centres undefined) -27.7%
COc1ccc(NC(=O)CSc2nc(-c3ccc(OC)cc3)[nH]c2-c2ccc(F)cc2)cc1 -19%
CN(C)c1ccc(CNC(=O)CCC(=O)N2Cc3ccccc3Oc3ncccc32)cc1 -14.4%
COc1cc2cc(CNc3ccc(C)cc3)c(=O)n(CC(=O)Nc3ccc(C(C)C)cc3)c2cc1OC -1.14%
CCn1ccc2cc(S(=O)(=O)N3CCC(C(=O)NCCc4ccc(SC)cc4)CC3)ccc21 -5.79%
Clc1ccc(CNc2nc3ccccc3c3nc(-c4cccnc4)nn23)cc1 -7.86%
CCc1cccc(C)c1NC(=O)CN1C(=O)c2c(c3ccccc3n2C)C1c1ccc(OC)cc1 (centres undefined) -16.1%
Cn1nnc2c(N3CCCCC3)ncnc21 -8.14%
CCOc1ccccc1NC(=O)CN(CCc1ccccc1)S(=O)(=O)c1ccc(C)cc1 -3.98%
COCCc1nn2c(=O)cc(COC(=O)c3cccs3)nc2s1 7.07%
COc1cccc(CCNC(=O)c2c(O)nc3cc(C)ccn3c2=O)c1 -6.96%
COc1ccc(-c2nc(CCNC(=O)c3cccs3)cs2)cc1OC -2.92%
CCCCN(C)C(=O)CN1C(=O)CCn2nc(-c3cn(C)c4ccccc34)cc21 32.7%
COCCCNC(=O)Nc1cc(C(=O)NCc2ccc(OC)cc2)ccc1N1CCCC1 -13.6%
CCc1ccccc1NC(=O)C(NS(=O)(=O)c1ccc2c(c1)CCC(=O)N2)c1ccccc1 (centres undefined) -1.91%
CC(=O)OCC(=O)[C@@]1(O)CC[C@H]2[C@@H]3CCC4=CC(=O)C=C[C@]4(C)[C@H]3[C@@H](O)C[C@@]21C -5.33%
COc1ccc2cc(CNc3ccccc3)c(=O)n(CC(=O)Nc3ccc(C)cc3C)c2c1 -24.9%
O=C1NC(c2cccc([N+](=O)[O-])c2)=CCN1c1ccccc1O -12.2%
Cc1ccc2c(CC(=O)Nc3c(C(=O)Nc4cccc(Cl)c4)oc4ccccc34)coc2c1C 3.57%
Cc1ccc2nc(SCc3nc(-c4ccccc4C)no3)[nH]c2c1 10.8%
Cc1ccccc1Cn1c(Oc2ccccc2F)nc2c1c(=O)n(C)c(=O)n2C 3.55%
Cc1ccc(N2CCN(C(=O)C3CCC(CNS(=O)(=O)c4ccc(Br)s4)CC3)CC2C)cc1 (centres undefined) 6.45%
CCCCN(CC)CCNC(=O)Cn1c(=O)c2cccn2c2cccnc21 -5.7%
Cc1ccc(NC(=O)Cn2c(=O)c(C(F)(F)F)nc3ccccc32)c(C)c1 4.74%
CN(Cc1ccccc1)C(=O)Cn1ncc2c3ccccc3n(Cc3cccc(Cl)c3)c2c1=O -6.82%
COc1ccc(NC(=O)CSC2=Nc3ccccc3C3=NC(Cc4ccccc4)C(=O)N23)cc1Cl (centres undefined) -10.8%
Cc1ccc(Nc2cc(C(=O)NC3CCCC3)c3ccccc3n2)c(C)c1 -8.32%
Cc1ccc(Cl)cc1Nc1sc(C(=O)c2ccccc2)c(N)c1S(=O)(=O)c1ccccc1 -17.4%
CC(C)(C)c1ccc(C(=O)N2CC(=O)Nc3ccc(F)cc3C2c2ccc(F)cc2)cc1 (centres undefined) -27.9%
Cc1cc(C)c2oc(-c3cccc(NC(=O)c4cc5ccccc5o4)c3)nc2c1 23%
CCc1cnc2c(c1SCC(=O)NCc1ccccc1)c(=O)n(C)c(=O)n2C -0.087%
COc1cc(CCC(=O)NCc2ccc3c(c2)CCN3C(=O)c2cccc(C)c2)cc(OC)c1OC -15.7%
COc1cc(C2c3c(oc4ccccc4c3=O)C(=O)N2Cc2ccccc2Cl)ccc1O (centres undefined) -0.233%
O=C(c1ccco1)N1CCN(c2nc3ccc(Cl)cc3s2)CC1 8.27%
CCn1ccc2cc(S(=O)(=O)N3CCC(C(=O)NCCOC)CC3)ccc21 0.31%
CCc1nc2ccc(C(=O)NCCc3ccc(OC)c(OC)c3)cc2nc1CC -4.01%
CCOc1ccccc1CNC(=O)c1[nH]c2ccccc2c1Sc1ccccc1 -22.5%
CCCOC(=O)c1ccc(N)cc1 0.577%
Nc1ncnc2c1ncn2C1CCCC1 -0.635%
O=S(=O)(c1ccc(-c2cc(C(F)(F)F)on2)s1)N1CCN(c2cccc(Cl)c2)CC1 6.79%
CCN1CCN(CCCNC(=O)c2cc3c(s2)-c2c(C)cccc2OC3)CC1 11.5%
Cc1nn2c(C(F)(F)F)cc(-c3ccc(OC(C)C)cc3)nc2c1C#N -0.305%
Cc1ccccc1OCC(=O)Nc1ccccc1C(=O)OCc1cc(=O)n2c(C)csc2n1 10.6%
COCCn1c(C)cc(O)c(C(c2ccccc2OC)N2CCCCC2)c1=O (centres undefined) -15.7%
COc1ccc(OC)c(CCNC(=O)c2ccc3[nH]c(C)c(C)c3c2)c1 -6.97%
COc1ccc(C(CC(=O)Nc2ccc(OC)c(OC)c2)N2Cc3ccccc3C2=O)cc1 (centres undefined) -20.1%
O=C(Nc1cccc(C2=NCCN2)c1)Nc1cccc(C2=NCCN2)c1 -0.218%
Cc1ccc(C)c(N2CCN(C(=O)c3cccn3-c3nnc(N4CCCCC4)s3)CC2)c1 -5.15%
COc1cccc(CNC(=O)c2cc3c(=O)n(C)c4ccccc4c3n2C)c1 -2.5%
COC(=O)Cc1c(C)c2ccc3c(c2oc1=O)CN(Cc1ccc(Cl)cc1)CO3 -13.5%
CCOc1ccc(-n2cc(-c3ccccc3)c3c(NCc4ccccc4)ncnc32)cc1 -36.4%
COCCn1c(SCc2ccccc2F)nc2c([nH]c3ccccc32)c1=O -3.43%
COc1cc(CN(C(=O)c2ccc(C)cc2)C2CCS(=O)(=O)C2)cc(OC)c1OC (centres undefined) -12.6%
Cc1cccc(CNC(=O)c2ccc(Cn3c(SCc4cccc(F)c4)nc4cccnc43)cc2)c1 -26.7%
Cc1ccc(NS(=O)(=O)c2cn(C)c(C)n2)c(Br)c1 34.7%
COc1ccc(CNC(=O)C2CCN(S(=O)(=O)N3CCC(C)CC3)CC2)c(OC)c1 -5.76%
COc1ccc(NC(=O)CCn2cnnn2)cc1 -2.43%
CCCSc1ncc(Cl)c(C(=O)Nc2ccc(S(=O)(=O)N3CCCCC3C)cc2)n1 (centres undefined) -23.6%
Cc1ccc2c(c1)c1c(c(=O)n(Cc3ccccc3)c(=O)n1Cc1cccc(F)c1)n2C -5.56%
N#C/C(=C\c1cccc(F)c1)c1nc(-c2cc3ccccc3oc2=O)cs1 -5.42%
Cc1ccccc1OCc1nnc(SCc2cc(=O)c3cc(F)ccc3[nH]2)n1C 46.5%
CCC1CN(CC(=O)NCc2cccc(Br)c2)c2ccccc2S1 (centres undefined) 19.4%
Cc1ccc(S(=O)(=O)c2cn(CC(=O)Nc3ccc4c(c3)OCO4)c3ccc(C)cc3c2=O)cc1 -15.8%
COc1ccc(-c2nc3ccccc3o2)cc1NC(=O)c1cc([N+](=O)[O-])ccc1N1CCOCC1 -8.73%
COc1ccc(-c2ccc(CCC(=O)O)n2-c2ccccc2C(F)(F)F)cc1 -2.21%
COC(=O)Cc1c(C)nc2nc(NCc3ccc(Br)cc3)[nH]n2c1=O 25%
CC(Oc1ccccc1)C(=O)Nc1ccccc1C(=O)OCc1cc(=O)n2nc(C3CC3)sc2n1 (centres undefined) 28.7%
CCc1nnc(SCC(=O)Nc2ccc(OC)c(OC)c2)c2cc3occc3n12 -6.39%
CCc1ccc(N2CC(C)Cn3c2nc2c3c(=O)n(CC(=O)O)c(=O)n2C)cc1 (centres undefined) 9.02%
CC[C@H](c1ccc(O)cc1)[C@@H](CC)c1ccc(O)cc1 8.6%
Cc1c(Nc2ncccc2C(=O)O)cccc1C(F)(F)F 30.8%
CCOc1ccc(-c2cc(C)n3nc(C(=O)Nc4ccc(C)c(C)c4)cc3n2)cc1 3.4%
CCOC(=O)CN(Cc1ccccc1)C(C(=O)NC1CCCCC1)c1ccccc1 (centres undefined) -22.4%
COc1ccc(CCNC(=O)c2c(Nc3ccccc3C)sc(C(=O)c3ccccc3)c2N)cc1OC -50.9%
Cc1cccc2nc(Cn3c(=O)n(-c4ccccc4)c(=O)c4c5c(sc43)CCC5)cc(=O)n12 -1.07%
COc1ccccc1OCCCn1c(C2CC(=O)N(c3ccc(F)cc3)C2)nc2ccccc21 (centres undefined) 8.11%
CC(C)n1c(SCC(=O)c2ccc(F)cc2)nc2c(sc3ccccc32)c1=O -4.7%
CCCN(C(=O)c1c(C)oc2ncn(CC(C)C)c(=O)c12)c1ccccc1C -17.3%
COc1ccc(-c2nn(C)c3sc(C(=O)Nc4cc(OC)c(OC)c(OC)c4)cc23)cc1OC -18.2%
CCN1c2ccccc2-c2nc(SCC(=O)Nc3cc(OC)cc(OC)c3)ncc2S1(=O)=O 19.1%
CCCCC(=O)OCC(=O)[C@H]1[C@H](C)C[C@H]2[C@@H]3C[C@H](F)C4=CC(=O)C=C[C@]4(C)[C@@]3(F)[C@@H](O)C[C@@]21C 36.7%
CCOc1ccccc1NC(=O)CSc1nnc(CC)c(CC)n1 -15.4%
CCCCC(CC)CNC(=O)c1ccc(Cn2c(=O)[nH]c3cc(OC)c(OC)cc3c2=O)cc1 (centres undefined) -6.45%

Reference: PubChem BioAssay AID1346428 (National Center for Advancing Translational Sciences (NCATS), 2018)
